Here are results for 40 compounds from the supplement of paper PMC9174493.

Molecules are shown by their SMILES. The list shows a part of the results. Single values of this set are uncertain. Values with irradiation are relative to irradiated vehicle.

This test concerns A549-Dual. Description: ISRE reporter (Lucia luciferase) activity, viability-corrected, relative to vehicle (fold change vs vehicle); higher = more activation of STING-IRF / NF-kB immune response reporter. The settings on record: 10 µM; irradiation: 8 Gy/4 fr.
`COc1cc2nc(N(C)CCCNC(=O)C3CCCO3)nc(N)c2cc1OC.Cl` (stereo not given) [Alfuzosin HCl] displayed an ISRE reporter of 0.824.

In turn, `N=C(N)NCCCC1NC(=O)C(CCCCN)NC(=O)C(Cc2ccccc2)NC(=O)C(CC(=O)O)NC(=O)CNC1=O.O=C(O)C(F)(F)F` (stereo not given) [Cyclo (-RGDfK)] had an ISRE reporter of 1.1.

For `CC(C)=CCCC(C)(OC1OC(CO)C(O)C(O)C1O)C1CCC2(C)C1C(O)CC1C3(C)CCC(O)C(C)(C)C3C(OC3OC(CO)C(O)C(O)C3OC3OC(C)C(O)C(O)C3O)CC12C` (stereo not given) [Ginsenoside Re], the ISRE reporter was determined as 0.936.

`Cc1onc(-c2ccccc2)c1-c1ccc(S(N)(=O)=O)cc1` [Valdecoxib] returned an ISRE reporter of 0.777.

As for `Cc1cc(C)nc(NS(=O)(=O)c2ccc(N)cc2)n1` [Sulfamethazine], the ISRE reporter came to 0.928.

For the compound `NC12CC3CC(CC(C3)C1)C2` [Amantadine], the ISRE reporter came out at 0.725.

For the compound `O=C(NCC(O)CO)c1c(I)c(C(=O)NCC(O)CO)c(I)c(N(CCO)C(=O)CO)c1I` (stereo not given) [Ioversol], the ISRE reporter was found to be 0.848.

Consider `CCN(CC)CC(=O)Oc1ccc(NC(C)=O)cc1.Cl` [Propacetamol hydrochloride], for which the ISRE reporter is 0.502.

As for `CCS(=O)(=O)CCn1c([N+](=O)[O-])cnc1C` [Tinidazole], the ISRE reporter is 0.895.

Turning to `CCCCOc1ccc(OCCCN2CCOCC2)cc1.Cl` [Pramoxine HCl], the ISRE reporter came to 1.3.

Consider `Cc1nc[nH]c1CN1CCc2c(c3ccccc3n2C)C1=O.Cl` [Alosetron Hydrochloride], for which the ISRE reporter stood at 0.501.

In the case of `OCC(O)COc1ccc(Cl)cc1` (stereo not given) [Chlorphenesin], the ISRE reporter amounted to 0.708.

Turning to `O=c1cc(O)c(Cl)c[nH]1` [Gimeracil], the ISRE reporter stood at 0.602.

For the compound `O=C(O)c1cc(=O)[nH]c(=O)[nH]1` [Orotic acid (6-Carboxyuracil)], the ISRE reporter is 0.754.

As to `CNCC(O)C(O)C(O)C(O)CO.CNCC(O)C(O)C(O)C(O)CO.O=C(O)CN1CCN2CCN(CC(=O)O)CC(=O)[O][Gd]([O]C(=O)C2)[O]C(=O)C1` [Gadopentetate Dimeglumine], the ISRE reporter turned out to be 1.4.

In the case of `CS(=O)(=O)O.Cc1c(O)cccc1C(=O)NC(CSc1ccccc1)C(O)CN1CC2CCCCC2CC1C(=O)NC(C)(C)C` (stereo not given) [Nelfinavir Mesylate], the ISRE reporter was 0.386.

`CCN1CCCC1CNC(=O)c1cc(S(=O)(=O)CC)c(N)cc1OC` (stereo not given) [Amisulpride] showed an ISRE reporter of 1.01.

For `CC(=O)NC(CC(C)C)C(=O)O` (stereo not given) [Acetylleucine], the ISRE reporter is 0.785.

In turn, `NC(Cc1cc(I)c(Oc2cc(I)c(O)c(I)c2)c(I)c1)C(=O)[O-].[Na+]` (stereo not given) [Levothyroxine sodium] registered an ISRE reporter of 0.745.

`Cl.O=C1C2CCCCC2C(=O)N1CCCCN1CCN(c2nsc3ccccc23)CC1` (stereo not given) [Perospirone hydrochloride] displayed an ISRE reporter of 0.469.

Regarding `CCOC(=O)C1=CC2(CC)CCCN3CCc4c(n1c1ccccc41)C32` (stereo not given) [Vinpocetine], the ISRE reporter was 0.618.

The compound `COc1ccccc1OCCNCC(O)COc1cccc2[nH]c3ccccc3c12.O=P(O)(O)O` (stereo not given) [Carvedilol Phosphate] came in with an ISRE reporter of 1.12.

`COc1ccccc1OCCNCC(O)COc1cccc2[nH]c3ccccc3c12` (stereo not given) [Carvedilol] gave an ISRE reporter of 1.69.

Consider `COc1ccc(C(=O)c2ccc(C)cc2)c(O)c1` [Mexenone], for which the ISRE reporter was found to be 0.577.

The compound `CCOCCn1c(N2CCCN(C)CC2)nc2ccccc21.O=C(O)/C=C/C(=O)O.O=C(O)/C=C/C(=O)O` [Emedastine Difumarate] came in with an ISRE reporter of 0.819.

The compound `CNC1C(O)C(NC)C2OC3(O)C(=O)CC(C)OC3OC2C1O.Cl.Cl` (stereo not given) [Spectinomycin 2HCl] came in with an ISRE reporter of 0.841.

Compound `CC1=C(C(=O)O)N2C(=O)C(NC(=O)C(N)c3ccccc3)C2SC1` (stereo not given) [Cephalexin] returned an ISRE reporter of 0.972.

On to `CC(=O)O.Cc1c(-c2ccc(O)cc2)n(Cc2ccc(OCCN3CCCCCC3)cc2)c2ccc(O)cc12` [Bazedoxifene Acetate], for which the ISRE reporter was 0.701.

The compound `O=C([O-])P(=O)([O-])[O-].[Na+].[Na+].[Na+]` [Foscarnet Sodium] returned an ISRE reporter of 0.986.

In turn, `CN(C)CCOC(c1ccccc1)c1ccccc1.Cn1c(=O)c2[nH]c(Cl)nc2n(C)c1=O` [Dimenhydrinate] registered an ISRE reporter of 1.08.

Turning to `OCC1OC(OC2C(CO)OC(O)C(O)C2O)C(O)C(O)C1O` [D-(+)-Cellobiose], the ISRE reporter is 0.788.

The compound `O=C1C(O)=C(C2CCC(c3ccc(Cl)cc3)CC2)C(=O)c2ccccc21` (stereo not given) [Atovaquone] gave an ISRE reporter of 0.379.

For the compound `COC(=O)C1C(C)C(OC)/C=C/OC2(C)Oc3c(C)c(O)c4c(O)c(cc([O-])c4c3C2=O)NC(=O)/C(C)=C\C=C\C(C)C(O)C(C)C(O)C1C.[Na+]` (stereo not given) [Rifamycin sodium salt], the ISRE reporter was 1.08.

In turn, `Br.Cc1ccc(Sc2ccccc2N2CCNCC2)c(C)c1` gave an ISRE reporter of 0.284.

`CC(Cn1cnc2c(N)ncnc21)OCP(=O)(O)O` (stereo not given) [Tenofovir] had an ISRE reporter of 0.574.

Compound `COC(=O)C1=C(C)NC(C)=C(C(=O)OCCN(C)Cc2ccccc2)C1c1cccc([N+](=O)[O-])c1.Cl` (stereo not given) [Nicardipine HCl] displayed an ISRE reporter of 0.636.

Take `Br.COc1ccc2c3c1OC1CC(O)C=CC31CCN(C)C2` (stereo not given) [Galanthamine HBr]: the ISRE reporter was 0.606.

Compound `COc1cc(N)c(Cl)cc1C(=O)NC1CCN(CCCOc2ccc(F)cc2)CC1OC.O` (stereo not given) [Cisapride hydrate] gave an ISRE reporter of 0.81.

In turn, `CCCCCCCCCCCCCCC(=O)O` [Pentadecanoic acid] showed an ISRE reporter of 1.18.

In turn, `CCCSc1ccc2nc(NC(=O)OC)[nH]c2c1` [Albendazole] showed an ISRE reporter of 0.163.
